Laboratory results: ChEMBL document CHEMBL4888484, “Replenishing the malaria drug discovery pipeline: Screening and hit evaluation of the MMV Hit Generation Library 1 (HGL1) against asexual blood stage Plasmodium falciparum ,using a nano luciferase reporter read-out” (2022)
About 540 (0.36%) of roughly 150,000 compounds showed an effect of 50% or more. Some of the results follow.

Test system: Plasmodium falciparum
Experiment: Primary screen in NF54 nanoGlo assay, in single point, at 2uM, 72h; a lower Z score goes with more inhibition
Type: functional, Erythrocyte
Settings: timepoint 72 hour

Going from `Cc1ccc(-c2nc([C@H]3CCC(F)(F)C3)no2)nn1` to `c1sc2c(c1-c1nc([C@H]3CCOC3)no1)CCCC2`, the “% Inhibition” value falls from -7% to -13%.

First: CCc1nnc(-c2c(C)c(S(=O)(=O)NCc3ccc(F)cc3F)c(C)n2C)o1
Second: Cc1nc2ncnn2c(O)c1NC(=O)Nc1cccc(F)c1
The “% Inhibition” value of the first is higher: 1% for the first, 0% for the second.

Compared with `Cc1cccnc1CN1CCOC[C@H]1c1nc(-c2ccccc2)no1`, `c1ccc2c(c1)CCN(c1ncnc3sccc13)C2` is lower in “% Inhibition” value: -4% for the first, -7% for the second.

Going from `O=C(NC1CCCC1)N1CCC(F)(F)CC1` to `Cc1nc(CN(C)C(=O)NC2CCCCC2)no1`, the “% Inhibition” value falls from 1% to -3%.

First: Cc1ncsc1CN1CC(N(C2CCOCC2)S(C)(=O)=O)C1
Second: CN(C)S(=O)(=O)N(CCNC(=O)Nc1ccccc1C(F)(F)F)C1CCOCC1
The “% Inhibition” value of the first is lower: -4% for the first, 0% for the second.

Going from `Cc1nnc(NC(=O)CCNC(=O)C2CCCC2)s1` to `O=C(NCC1CC1)C(=O)N[C@H]1CCCC[C@@H]1O`, the “% Inhibition” value rises from -7% to -1%.

Going from `CC(C)(CO)NC(=O)Nc1ccccc1OCCc1ccccn1` to `COc1ccccc1-c1n[nH]c(C2CC2)c1NC(=O)CC(C)(C)C`, the “% Inhibition” value falls from 8% to -16%.

Compared with `COCCN1CCC(c2c(-c3ccccc3)ncn2CCOCCO)CC1`, `COCC1(C2CCC2)CN(C(=O)c2ccc(-c3cccc(C)c3)n2C)C1` is higher in “% Inhibition” value: -11% for the first, 1% for the second.

First: CC(C)Oc1cc(CN(C(=O)c2ccn(CC(F)F)n2)C2CC2)ccn1
Second: CCc1cc(CNC(=O)N(Cc2ccccc2F)C2CCC2)[nH]n1
The “% Inhibition” value of the first is lower: -12% for the first, 1% for the second.

Going from `O=S(=O)(c1c(F)cccc1Cl)N1CCC(n2cccn2)CC1` to `COc1ccc(OC)c(S(=O)(=O)N2CC[C@H](S(=O)(=O)c3ccc(Cl)cc3)C2)c1`, the “% Inhibition” value falls from 10% to 7%.

First: O=C1CNCCN1[C@H]1CCCN(Cc2n[nH]c3ccccc23)C1
Second: O=C(CN1CCCC1c1nc2ccccc2s1)NC1CCS(=O)(=O)C1 (stereo unspecified)
The “% Inhibition” value of the first is lower: -12% for the first, -1% for the second.

Going from `Cc1ccc(-n2nc(C(C)C)c(C(=O)NCc3ccco3)c2C(C)C)cc1` to `Cc1ccc(C)c(-n2cnc(=O)n2CC(=O)c2cc(C(N)=O)co2)c1`, the “% Inhibition” value falls from -1% to -5%.

Compared with `CN(Cc1ccccc1)C(=O)Cn1nncc1-c1ccccc1`, `Cc1ccc(-c2nc3nc(-c4ccccc4)c(-c4ccccc4)nn3c2C)cc1` is higher in “% Inhibition” value: -3% for the first, 3% for the second.

Going from `CN1CCCN(c2ccc(NC(=O)c3cccc(Cl)c3)c(C(=O)O)c2)CC1` to `Cc1cccc(NC(=O)[C@H]2CCCN(c3nnc4cccc(C)n34)C2)c1`, the “% Inhibition” value falls from 39% to -10%.

First: O=C(NC[C@@H]1CCC[C@H]1O)c1cnc2c(F)cccc2c1
Second: O=C(NC1CCCCCC1CO)c1c[nH]nc1-c1ccsc1 (stereo unspecified)
The “% Inhibition” value of the first is lower: -12% for the first, -11% for the second.

Compared with `C/C(=C\c1ccccc1)CN1CCC2(CC1)[C@H](O)C[C@@H]2O`, `CC1(C)CO[C@H](c2ccccc2Cl)CN1CC(=O)N1CCOCC1` is lower in “% Inhibition” value: 0% for the first, -5% for the second.

First: O=C(N[C@H]1CCOC[C@H]1C1CCOCC1)c1ccc(F)c(O)c1
Second: c1cc(CNC2C[C@@H]3CCCC[C@H]23)c(OCC2CCOC2)cn1 (stereo partly specified)
The “% Inhibition” value of the first is lower: -10% for the first, 5% for the second.

First: COc1cc(NC(=O)Cn2cc(OC)c(=O)cc2CO)cc(OC)c1OC
Second: CNS(=O)(=O)c1ccc(OC)cc1
The “% Inhibition” value of the first is higher: -6% for the first, -10% for the second.

Going from `C#CCNC(=O)N1CCCCC[C@@H]1CC` to `COCc1nc([C@H]2CCOC2)cc(N2CCC(C(=O)N3CCCC3)CC2)n1`, the “% Inhibition” value rises from -5% to -2%.

Going from `c1cc(OCc2ccc3c(c2)OCO3)ccc1CNC[C@H]1CCCO1` to `Cc1nc([C@H]2CCCN2S(=O)(=O)c2cccc3c2OCC3)cs1`, the “% Inhibition” value falls from 14% to -6%.

Going from `O=C(Nc1ccc(O)cc1)C1CCN(C(=O)C23CCCN2CCC3)CC1` to `CN(Cc1ccc(F)cn1)c1ccn(C)n1`, the “% Inhibition” value rises from -8% to 37%.

For `Cc1cc(C#N)nc(N2CC[C@H](N(C)C)C2)n1`, the “% Inhibition” value was 1%.

Going from `Cc1ccc(-c2nc([C@H]3CCC(F)(F)C3)no2)nn1` to `c1sc2c(c1-c1nc([C@H]3CCOC3)no1)CCCC2`, the Z score rises from 1.29 to 1.82.

Compared with `CCc1nnc(-c2c(C)c(S(=O)(=O)NCc3ccc(F)cc3F)c(C)n2C)o1`, `Cc1nc2ncnn2c(O)c1NC(=O)Nc1cccc(F)c1` is higher in Z score: -0.09 for the first, 0.05 for the second.

Compared with `Cc1cccnc1CN1CCOC[C@H]1c1nc(-c2ccccc2)no1`, `c1ccc2c(c1)CCN(c1ncnc3sccc13)C2` is higher in Z score: 0.61 for the first, 1.09 for the second.

Compared with `O=C(NC1CCCC1)N1CCC(F)(F)CC1`, `Cc1nc(CN(C)C(=O)NC2CCCCC2)no1` is higher in Z score: -0.29 for the first, 0.4 for the second.

Compared with `Cc1ncsc1CN1CC(N(C2CCOCC2)S(C)(=O)=O)C1`, `CN(C)S(=O)(=O)N(CCNC(=O)Nc1ccccc1C(F)(F)F)C1CCOCC1` is lower in Z score: 0.68 for the first, -0.05 for the second.

Going from `Cc1nnc(NC(=O)CCNC(=O)C2CCCC2)s1` to `O=C(NCC1CC1)C(=O)N[C@H]1CCCC[C@@H]1O`, the Z score falls from 0.66 to 0.18.

Going from `CC(C)(CO)NC(=O)Nc1ccccc1OCCc1ccccn1` to `COc1ccccc1-c1n[nH]c(C2CC2)c1NC(=O)CC(C)(C)C`, the Z score rises from -1.07 to 1.53.

Compared with `COCCN1CCC(c2c(-c3ccccc3)ncn2CCOCCO)CC1`, `COCC1(C2CCC2)CN(C(=O)c2ccc(-c3cccc(C)c3)n2C)C1` is lower in Z score: 2.16 for the first, -0.15 for the second.

First: CC(C)Oc1cc(CN(C(=O)c2ccn(CC(F)F)n2)C2CC2)ccn1
Second: CCc1cc(CNC(=O)N(Cc2ccccc2F)C2CCC2)[nH]n1
The Z score of the first is higher: 1.51 for the first, -0.1 for the second.

Compared with `O=S(=O)(c1c(F)cccc1Cl)N1CCC(n2cccn2)CC1`, `COc1ccc(OC)c(S(=O)(=O)N2CC[C@H](S(=O)(=O)c3ccc(Cl)cc3)C2)c1` is lower in Z score: -0.88 for the first, -1.25 for the second.

Going from `O=C1CNCCN1[C@H]1CCCN(Cc2n[nH]c3ccccc23)C1` to `O=C(CN1CCCC1c1nc2ccccc2s1)NC1CCS(=O)(=O)C1` (stereo unspecified), the Z score falls from 1.25 to 0.14.

Going from `Cc1ccc(-n2nc(C(C)C)c(C(=O)NCc3ccco3)c2C(C)C)cc1` to `Cc1ccc(C)c(-n2cnc(=O)n2CC(=O)c2cc(C(N)=O)co2)c1`, the Z score rises from 0.16 to 0.98.

Going from `CN(Cc1ccccc1)C(=O)Cn1nncc1-c1ccccc1` to `Cc1ccc(-c2nc3nc(-c4ccccc4)c(-c4ccccc4)nn3c2C)cc1`, the Z score falls from 0.44 to -0.47.

Compared with `CN1CCCN(c2ccc(NC(=O)c3cccc(Cl)c3)c(C(=O)O)c2)CC1`, `Cc1cccc(NC(=O)[C@H]2CCCN(c3nnc4cccc(C)n34)C2)c1` is higher in Z score: -5.63 for the first, 1.07 for the second.

Compared with `O=C(NC[C@@H]1CCC[C@H]1O)c1cnc2c(F)cccc2c1`, `O=C(NC1CCCCCC1CO)c1c[nH]nc1-c1ccsc1` (stereo unspecified) is lower in Z score: 1.61 for the first, 1.08 for the second.

Going from `C/C(=C\c1ccccc1)CN1CCC2(CC1)[C@H](O)C[C@@H]2O` to `CC1(C)CO[C@H](c2ccccc2Cl)CN1CC(=O)N1CCOCC1`, the Z score rises from 0.04 to 0.54.

First: O=C(N[C@H]1CCOC[C@H]1C1CCOCC1)c1ccc(F)c(O)c1
Second: c1cc(CNC2C[C@@H]3CCCC[C@H]23)c(OCC2CCOC2)cn1 (stereo partly specified)
The Z score of the first is higher: 1.48 for the first, -0.48 for the second.

Going from `COc1cc(NC(=O)Cn2cc(OC)c(=O)cc2CO)cc(OC)c1OC` to `CNS(=O)(=O)c1ccc(OC)cc1`, the Z score rises from 0.77 to 0.81.

Going from `C#CCNC(=O)N1CCCCC[C@@H]1CC` to `COCc1nc([C@H]2CCOC2)cc(N2CCC(C(=O)N3CCCC3)CC2)n1`, the Z score falls from 0.67 to 0.26.

Compared with `c1cc(OCc2ccc3c(c2)OCO3)ccc1CNC[C@H]1CCCO1`, `Cc1nc([C@H]2CCCN2S(=O)(=O)c2cccc3c2OCC3)cs1` is higher in Z score: -1.84 for the first, 0.81 for the second.

Going from `O=C(Nc1ccc(O)cc1)C1CCN(C(=O)C23CCCN2CCC3)CC1` to `CN(Cc1ccc(F)cn1)c1ccn(C)n1`, the Z score falls from 1.46 to -5.3.

`Cc1cc(C#N)nc(N2CC[C@H](N(C)C)C2)n1` showed a Z score of -0.11.
